The results in this text go back to patent US20210363257A1 (Pieris, published 2021).

In assay [1] the target is T1, cynomolgus CD137 expressed on cells (cynomolgus, UniProt A9YYE7 24-254).
T1 construct: also called Flp-In-CHO::cynoCD137
Kind of assay: flow cytometry, Flp-In-CHO::cynoCD137 cells. As for the experimental part:
(§1) The geometric means of the fluorescence intensity were used to calculate EC₅₀ values using nonlinear regression (shared bottom, SLOPE=1).
(§2) 5×10⁴ cells per well were incubated for 1 h in ice-cold PBS containing 5% fetal calf serum (PBS-FCS). A dilution series of the fusion proteins and control antibodies were added to the cells and incubated for 1 h on ice. Cells were washed twice with PBS and then incubated with a goat anti-hIgG Alexa647-labeled antibody for 30 min on ice. Cells were subsequently washed and analyzed using iQue Flow cytometer (Intellicyte Screener). Mean geometric fluorescent signals were plotted and fitted with Graphpad software using nonlinear regression (shared bottom, SLOPE=1).
For orientation: Flow cytometry measures light scatter and fluorescence of single cells or particles in a stream.

In assay [2] the target is T2, huCD137-His (human CD137 with a C-terminal polyhistidine tag) (human, UniProt Q07011 24-186).
T2 construct: Bought; also called huCD137-His-Bio
Kind of assay: SPR (Biacore), binder captured by anti-human IgG Fc, huCD137-His in solution, 25 C, 1:1 model. The method, then: The binding kinetics and affinity of exemplary fusion proteins to huPD-L1-His or huCD137-His (human PD-L1 or human CD137 with a C-terminal polyhistidine tag, R&D Systems) were determined by surface plasmon resonance (SPR) using a Biacore 8K or a Biacore T200 (GE Healthcare).
The anti-human IgG Fc antibody (GE Healthcare) was immobilized on a CM5 sensor chip using standard amine chemistry: the carboxyl groups on the chip were activated using 1-ethyl-3-(3-dimethylaminopropyl)-carbodiimide (EDC) and N-hydroxysuccinimide (NHS). Subsequently, anti-human IgG Fc antibody solution (GE Healthcare) at a concentration of 25 μg/mL in 10 mM sodium acetate (pH 5.0) was applied at a flow rate of 5 μL/min until an immobilization level of 6000-10000 resonance units (RU) was achieved. Residual non-reacted NHS-esters were blocked by passing a solution of 1M ethanolamine across the surface. The reference channel was treated in an analogous manner. […] After each capture step, the needle was washed.
Double referencing was used and the 1:1 binding model was used to fit the raw data.
Background: SPR reads the build-up and loss of mass on a sensor chip optically.

The target in assay [3] is T2, huCD137-His (human CD137 with a …). Put plainly: ELISA, huCD137-His coated, detection anti-NGAL-HRP. The method, then: (§3) Recombinant huPD-L1-His or cyPD-L1-His (human or cynomolgus PD-L1 with a C-terminal polyhistidine tag, R&D Systems or Sino Biologics) at the concentration of 1 μg/mL in PBS was coated overnight on microtiter plates at 4° C. After washing with PBS-0.05% T (PBS supplemented with 0.05% (v/v) Tween 20), the plates were blocked with 2% BSA (w/v) in PBS-0.1% T (PBS supplemented with 0.1% (v/v) Tween 20) for 1 h at room temperature. […] Bound molecules under study were detected by incubation with 1:5000 diluted anti-human IgG Fc-HRP (Jackson Laboratory) in PBS-0.1% T-2% BSA. After an additional wash step, fluorogenic HRP substrate (QuantaBlu, Thermo) was added to each well and the fluorescence intensity was detected using a fluorescence microplate reader.
(§4) The same ELISA setup was also employed to determine the binding potency of fusion proteins to CD137, where huCD137-His (human CD137 with C-terminal polyhistidine tag, R&D Systems) or cyCD137-Fc (cynomolgus CD137 C-terminally fused to Fc) was instead coated on a microtiter plate. The testing agents were similarly titrated and bound agents were detected via anti-NGAL-HRP.
(In general: ELISA stands for enzyme-linked immunosorbent assay.)

The target in assay [4] is cyCD137-Fc (cynomolgus CD137 C-terminally fused to Fc) (cynomolgus). Kind of assay: ELISA, cyCD137-Fc coated, detection anti-NGAL-HRP. The method, then:
as §3, §4

Assay [5] concerns the target T3, human CD137 expressed on cells (human, UniProt Q07011 24-255).
T3 construct: whole, on cells; also called Flp-In-CHO::huCD137; NFκB-luc2/CD137 Jurkat cells
Put plainly: flow cytometry, Flp-In-CHO::huCD137 cells. As for the experimental part: as §1, §2

T1 sequence (A9YYE7 entry or part of it limits assumed): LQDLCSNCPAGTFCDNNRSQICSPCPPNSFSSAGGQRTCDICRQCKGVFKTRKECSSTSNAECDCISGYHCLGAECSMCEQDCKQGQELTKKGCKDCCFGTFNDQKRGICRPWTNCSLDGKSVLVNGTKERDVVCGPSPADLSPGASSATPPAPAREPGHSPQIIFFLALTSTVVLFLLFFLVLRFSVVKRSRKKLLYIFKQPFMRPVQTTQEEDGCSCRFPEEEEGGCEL

B1: CD137-specific lipocalin mutein-Fc fusion SEQ ID NO: 89 (Fc fusion)
chain: [letters of human IgG4 Fc with S228P F234A L235A (EU numbers) left out]GGGGSGGGGSGGGGSQDSTSDLIPAPPLSKVPLQQNFQDNQFHGKWYVVGQAGNIRLREDKDPIKMMATIYELKEDKSYDVTMVKFDDKKCMYDIWTFVPGSQPGEFTLGKIKSFPGHTSSLVRVVSTNYNQHAMVFFKFVFQNREEFYITLYGRTKELTSELKENFIRFSKSLGLPENHIVFPVPIDQCIDG
Take B1: the EC50 (in general, the concentration that produces a half-maximal response) in assay [1] worked out at 26.7 nM; in assay [3], 0.29 nM; in assay [4] it was 0.82 nM; in assay [5], 5.74 nM. Besides, binding in assay [2] was characterised by a dissociation constant (Kd) of 3.6 nM. Further, in assay [2], the off-rate constant (koff) (in general, the first-order rate constant of dissociation) amounted to 0.000132 s⁻¹. Besides, the kon (commonly a measure of how fast the partners come together) in assay [2] came out at 36600 M⁻¹ s⁻¹.

B2: CD137-specific lipocalin mutein-Fc fusion SEQ ID NO: 88 (Fc fusion)
chain: [letters of human IgG4 Fc with S228P F234A L235A (EU numbers) left out]GGGGSGGGGSGGGGSQDSTSDLIPAPPLSKVPLQQNFQDNQFHGKWYVVGQAGNIRLREDKDPIKMMATIYELKEDKSYDVTMVKFDDKKCMYDIWTFVPGSQPGEFTLGKIKSFPGHTSSLVRVVSTNYNQHAMVFFKFVFQNREEFYITLYGRTKELTSELKENFIRFSKSLGLPENHIVFPVPIDQCIDGGGGGSGGGGSGGGGSQDSTSDLIPAPPLSKVPLQQNFQDNQFHGKWYVVGQAGNIRLREDKDPIKMMATIYELKEDKSYDVTMVKFDDKKCMYDIWTFVPGSQPGEFTLGKIKSFPGHTSSLVRVVSTNYNQHAMVFFKFVFQNREEFYITLYGRTKELTSELKENFIRFSKSLGLPENHIVFPVPIDQCIDG
With B2, the EC50 was found to be 3.81 nM in assay [1], 0.15 nM in assay [3], 0.12 nM in assay [4] and 4.33 nM in assay [5]. The affinity in assay [2], expressed as Kd, was 4.16 nM. In assay [2], this molecule gave a koff of 0.000163 s⁻¹. The kon in assay [2] is 39400 M⁻¹ s⁻¹.
